In the RNAGym collection of RNA variant scans (doi:10.1093/nar/gkz1192):
Read counts are not given, so values of variants with three or more changes are uncertain.

B1: CPEB3 Ribozyme (parent)
chain: UAACAGGGGGCCACAGCAGAAGCGUUCACGUCGCAGCCCCUGUCAGAUUCUGGUGAAUCUGCGAAUUCUGCUGUAUAUCUC

Variants of: B1
Assay: self-cleavage, relative activity (ratio to wild type); higher = more cleavage; in vitro, sequencing
How it was run: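 For each CPEB3 ribozyme variant, relative activity is its cleaved/total read fraction divided by the unmutated ribozyme's. Barcoded error-prone PCR libraries were transcribed by T7 RNA polymerase (5 hours, 37°C) and held in DNase I for 15 min before an EDTA stop, with cleavage occurring throughout. Template-switching reverse transcription and Illumina sequencing were used to read the RNAs. A 5-read minimum applied, and results are the mean of three batches.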

| Variant | self-cleavage |
| --- | --- |
| UAAUGGGGGGCCACAGCAGAAGCGUUCACGUCGCAGCCCCCGUCAGAUUCUGGUGAAUCUGCGAAUUCUGCUGUAUAUCUC | 0.79 |
| UAAUAGGGGGCCGCAGCGGAAGCGUUCACGUCGCAGCCCCUGUCAGAUUCUGGUGAAUCUGCGAAUUCUGCUGUAUAUCUC | 0.23 |
| UAAUAGGGGGCCGCAGCAGAAGCGUUCUCGUCGCCGCCCCUGUCAGAUUCUGGUGAAUCUGCGAAUUCUGCUGUAUAUCUC | 0.69 |
| UAAUAGGGGGCCGCAGCAGAAGCGUUCACGUCGCAGCCCCUGUCGGAUUCUGGUGAAUCUGCGAAUUCUGCUGUAUAUCUC | 1 |
| UAAUAGGGGGCCGCAGCAAAAGCGUUCACGUCGCAGCCCCCGUCAGAUUCUGGUGAAUCUGCGAAUUCUGCUGUAUAUCUC | 0.13 |
| UAAUAGGGGGCCGCAGCAGAAGCGUUCACGUCGCAGCCCCUGUCAGAUUCUAGCGAAUCUGCGAAUUCUGCUGUAUAUCUC | 1.04 |
| UAAUAGGGGGCCUCAGCAGAAGCAUUCACGUCGCAGCCCCAGUCAGAUUCCGGAGAAUCUGCGAAUUCUGCAGUAUAUCUC | 0.09 |
| UAAUAGGGGGCCACGGCAGAAGCGUUCACGUCGCGGCCCCUGUCAGAUUCUGGUGAAUCUGCGAAUUCUGCUGUAUAUCUC | 1.07 |
| UAAUAGGGGGCCACGGCAGAAGCGUUCACGUCGCAGCCCCUGUCAGAUUCUGGUGGGUCUGCGAAUUCUGCUGUAUAUCAC | 0.45 |
| UAAUAGGGGGCCACGGCAGAAGCGUUCACGUCGCAGCCCCUGUCAGAUUCUGGUGUAUCUGCGAAUUCUGCUGUAUAUCUC | 0.65 |
| UAAUAGGGGGCCACUGCAGAGGCGUUCUCGUCGCAGCCCCUGUCAGGUUCUGGUGAAUCUGCGAAUUCUGCUGUAUAUCUC | 0.49 |
| UAAUAGGGGGCCACUGCAGAAGCGUUCACGUCGCGGCCCCUGCCAGAUUCUGGUGAAUCUGCGAAUUCUGCUGUAUAUCUC | 1.22 |
| UAAUAGGGGGCCACUGCAGAAGAGUUCACGUCGCAGCCCCUGUCGGAUUCUGGUGAAUCUGCGAGUUCUGCUGUAUAACUC | 0.06 |
| UAAUAGGGGGCCACUGCAGAAGCGUUCAUGUCGCAGCCCUUGUCAGAUCCUGGUGAAUCCGAGAAUUCUGCUGUAUAUCUC | 0.07 |
| UAAUAGGGGGCCACUGCAGAAGCGUUCACGUCGCAGACCCUGUCAGAUUCUGGGGAAUCUGCGAAUUCUGCUGUAUAUCUC | 0.13 |
| UAAUAGGGGGCCACAGCGGAGGCGUUCAUGUAGCAGCCCCUGUCAGAUUCUGGUGAAUCUGCGAAUUCUGCUGUAUAUCUC | 0.12 |
| UAAUAGGGGGCCACAGCGGAAGCGCUCACGUUGCAGCCCCUGUCAGAUUCUGGUGAAUCUGCGUAUUCUGCUGUAUAUCAC | 0.28 |
| UAAUAGGGGGCCACAGCGGAAGCGUUCACGUCGCAGCCCCUGUCAGAUUCUGGCGAAUCUGCGAAUUCUGCUGUAUAUCUC | 1.22 |
| UAAUAGGGGGCCACAGCGGAAGCGUUCACGUCGCAGCCCCUGUCAGAUUCUGGUGAACCUGCGAAUUCUGCCGUAUAUCUC | 0.21 |
| UAAUAGGGGGCCACAGCGGAAGCGUUCACGUCGCAGCCCCUGUCAGAUUCUGGUGAAUCUGCGAAUUCUGCUGUACAUCUC | 1.1 |
| UAAUAGGGGGCCACAGCUGAAGCGUUCACGUCGCAGCCGCUGUCAGAUUCUGGUGAAUCUGCGAAUUCUGCUGUAUACCCC | 0.08 |
| UAAUAGGGGGCCACAGCUAGAGCGUUCACGUCGCAGCCCCUGUCAGAUUCUGGUGAGCCUGCGAAUUCUGCCGUAUAUCUC | 0.09 |
| UAAUAGGGGGCCACAGCUGAAGCGCUCACGUCGCAGCCUCUGUCAGUUUCUGGUGAAUCUGCGAAUUCUCCUGUAUAUCUC | 0.15 |

| Variant | self-cleavage |
| --- | --- |
| UAAUAGGGGGCCACAGCUGAAGCGUCCACGUCGCAGCCCCUGUCAGAUUCUGGUGAAUCUGCGGAUUCUGCUGUAUACCUC | 0.13 |
| UAAUAGGGGGCCACAGCUGAAGCGUUCACGACGCAGCCCCUGUCAGAUUCUGGUGAAUCUGCGAAUUCUGCUGUAUAUCUC | 0.46 |
| UAAUAGGGGGCCACAGCAGGGGCGUUCACGUCGCAGCCCCUGUCAGAUUCUGGUGAAUCUGCGUAUUCUGCUGUAUAUCUC | 0.25 |
| UAAUAGGGGGCCACAGCAGGGGCGUUCAUGUCGCAGCCCCUGUCAGAUUCUGGUGAAUCUGCGAAUUCUGCCGUAUAUCUC | 0.13 |
| UAAUAGGGGGCCACAGCAGGAGCGUUCGCGUCGCGGCCCCUGUCAGAUUCUGGUGAAUCUGCGAAUUCUGCUGUAUACCUC | 1.19 |
| UAAUAGGGGGCCACAGCAGGAGCGUUCGCGUCGCAGCCCCUGUCAGAUUCCGGUGAAUCAGCGAAUUCAGCUGUAUAUCUC | 0.13 |
| UAAUAGGGGGCCACAGCAGGACCGUUCACGUCGCGGCCCCUGUCAGAUUCUGGUGGAUCAGCGAAUUCUGCUGUAUAUCUC | 0.06 |
| UAAUAGGGGGCCACAGCAGGAGCGUUCACGUCGCAGCCCCUGUCAGAUUCUGGUUAAUCUGCGAAUUCUGCUGUAUAUCUC | 1.04 |
| UAAUAGGGGGCCACAGCAGUAGCGCUCACGUCGCAGCCCCUGUCAGAUUCAGGUGAAUCUGCGAAUUCUGCUGUAUAUCUC | 0.44 |
| UAAUAGGGGGCCACAGCAGUAGCGUUCACGUCGCAGCCCCUGUCAGAUUCAGGUGGAUCUGCGAAUUCUGCUGUAUAUCUC | 0.12 |
| UAAUAGGGGGCCACAGCAGUAGCGUUCACGUCGCAGCCCCUGUCAGAUUCUGGCGUAUCUGCGAACUCCGCUGUAUAUCUC | 0.17 |
| UAAUAGGGGGCCACAGCAGAGGCGCUCACGUCGCAGCCCCUGCCAGAUUCUGGUGAAUCUGCGAAUUCUGCUGUAUAUCUC | 0.3 |
| UAAUAGGGGGCCACAGCAGAAGCGUUCCCCUCGCAGCCCCUGUCAGAUUCUGGUGAAUCUGCGAAUUCUGCUGUAUAUCUC | 0.37 |
| UAAUAGGGGGCCACAGCAGAAGCGUUCGCGUCGCAGCCCUUGUCAGAUUCUGGUGAAUCUGCGAAUUCUGCCGUAUAUCUC | 0.73 |
| UAAUAGGGGGCCACAGCAGAAGCGUUCUCGUGGCAGCCCCUGUCAGAUUCUGGUGAAUCUGCGAAUUCUGCUGUAUAUCUC | 0.29 |
| UAAUAGGGGGCCACAGCAGAAGCGUUCACGUCGCCGCCCCUGUCAGAUUCUGGUGAAUCUGCGAAUUCUGCUGUACAUCUC | 1.19 |
| UAAUAGGGGGCCACAGCAGAAGCGUUCACGUCGCGGCCCCUGUCAGAUUCUGGUGAAUCUGCGAAGUCUGCUGUAUAUCUC | 1.22 |
| UAAUAGGGGGCCACAGCAGAAGCGUUCACGUCGCGGCCCCUGUCAGAUUCUGGUGAAUCUGCGAAUUCUGCUGUAUAACUC | 1.26 |
| UAAUAGGGGGCCACAGCAGAAGCGUUCACGUCGCUGCCCCUGUCUGAUUCUGGUGAAUCUGCGAAUUCUGCCGUAUAUCUC | 0.52 |
| UAAUAGGGGGCCACAGCAGAAGCGUUCACGUCGCUGCCCCAGUCAGAUUCUGGUGAAUCAGCGAGUUCUGAUGUAUAUCUC | 0.11 |
| UAAUAGGGGGCCACAGCAGAAGCGUUCACGUCGCUGCCCCUGACAGAUUCUGGUGAACUUGCGAAUUCUGCUGUAUAUCUC | 0.2 |
| UAAUAGGGGGCCACAGCAGAAGCGUUCACGUCGCUGCCCCUGUCAGAGUCUGGUGAAACUGCGAAUUCUGCCGUAUAUCUC | 0.08 |
| UAAUAGGGGGCCACAGCAGAAGCGUUCACGUCGCUGCCCCUGUCAGAUUCUGGAGAAUCUGCGGAUUCUGCUGUAUAUCUC | 0.8 |

| Variant | self-cleavage |
| --- | --- |
| UAAUAGGGGGCCACAGCAGAAGCGUUCACGUCGCUGCCCCUGUCAGAUUCUGGUGAAUCUGCGAACUCUGCUGUAUAUCUC | 0.11 |
| UAAUAGGGGGCCACAGCAGAAGCGUUCACGUCGCAGCCCCUGUCUGAUUCUGGAGAGUCUGCGAAUUCUGCUGUAUAUCUC | 0.33 |
| UAAUAGGGGGCCACAGCAGAAGCGUUCACGUCGCAGCCCCUGUCAGAUUCUGGUGGGUCUGCGAAUACUGCAGUAUAUCCC | 0.33 |
| UAAUAGGGGGCCACAGCAGAAGCGUUCACGUCGCAGCCCCUGUCAGAUUCUGGUGGAUCUGCGUAUUCUGCUGUAUAUCUC | 0.39 |
| UAAUAGGGGGCCACAGCAGAAGCGUUCACGUCGCAGCCCCUGUCAGAUUCUGGUGUAUCUGCGUAUUCUGCUGUAUAUCUC | 0.47 |
| UAAUAGGGGGCCACAGCAGAAGCGUUCACGUCGCAGCCCCUGUCAGAUUCUGGUGACUCGGCGAAUUCUGCUGUAUACCUC | 0.57 |
| UAAUAGGGGGCCACAGCAGAAGCGUUCACGUCGCAGCCCCUGUCAGAUUCUGGUGAGUCUGUGAAUUCUGCUGUAUAUCUC | 0.3 |
| UAAUAGGGGGCCACAGCAGAAGCGUUCACGUCGCAGCCCCUGUCAGAUUCUGGUGAGUCUGCGAAUUCCGCUGUGUAUCUC | 0.58 |
| UAAUAGGGGGACACAGCAGAAGCGUUCACGUCGCAGGCCCUGCCAGAUUCUGGUGAAUCUGCGAAUUCCGCUGUAUAUCUC | 0.08 |
| UAAUAGGGGGGCACAGCAGAAGCGUUCACGCCGCAGCCCCAGUCAGAUUCUGGUGAAUCUGCGAAUUCUGCUGUAUACCUC | 0.11 |
| UAAUAGGGGGUCACAGCAGAGGCGUACACGUCGCAGCCCCUGCCAGAUUCUGGUGAAUCUGCGAAUUCUGCUGUAUAUCUC | 0.25 |
| UAAUAGGGGGUCACAGCAGAAGCGUUCACGUCGCAGCCCCUGUCAGAUUUUGGUGUAUCUGCGAAUUCUGCUGUAUAUCUC | 0.3 |
| UAAUAGGGGGCUACAGCAGAGGCGUUCACGUCGCAGCCCCUGUCAGAUUCUGGUGAAUCUGCGAAUUCCGCUGUAUGUCCC | 0.43 |
| UAAUAGGGGGCUACAGCAGAAGCGUUCACGUCGCAGCCCCUGUCAGUUUCUGGUGAAUCUGCGAAUUCUGCUGUAUAUCUC | 1.33 |
| UAAUAGGGGGCCAAAGCAGAGGCGCUCACGUCGCAGCCCCUGUCAGACUCUGGUGAAUCUGCGAAUUCUGCUGUAUAUCAC | 0.07 |
| UAAUAGGGGGCCACAGCAGAAGCGUUCACGUAGCAGCCCCUGACAGAUUCAGGUGAAUCUGCGAAUCCUGCUAUAUAUCUC | 0.1 |
| UAAUAGGGGGCCACAGCAGAAGCGUUCACGUCGCAGCCCUUGUCAGAUUCUGGUGAGUCUGCGAAUCCUGCUGUAUAUCUC | 0.21 |
| UAAUAAGGGGCCACAGCAGAAGCGUUCACGUCGCAGCCCCUGUCAGAUUCUGGUGAAUCUGCGAAUCCUGCCGUACUUCUC | 0.13 |
| UAAUACGGGGCCACGGCAGAAGCGUUCACGCCGCAGCCCCUGUCAGAUUAUGGUGAAUCUGCGAAUUCUGCUGUAUAUCUC | 0.11 |
| UAAUAGCGGGCCACAGCAGAAGAGCUCACGUCGCGGCCCCUGUCAGAUUCUGGUGAAUCUGCGAAUUCUGCUGUACAUCUC | 0.08 |
| UAAUAGUGGGGCACAGCAGAAGCGUUCACGUCGCAGCCCCUGUCAGACUCUGGUGAAUCUGCGGAUUCUGCUGUAUAUCUC | 0.02 |
| UAAUAGGUGGCCACAGCAGUAGCGUUCACGUCGCAGCCCCCGUCAGAUUCUGGUGAGUCUGCGAAUUCUGCUGUAUAUCUC | 0.05 |
